Test results as given in PubChem BioAssay AID1346428 (National Center for Advancing Translational Sciences (NCATS), 2018).
About 1,200 (2.5%) of roughly 48,000 compounds were called active. About 2% were inconclusive and are not listed.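 Rule for the calls: active = activation of at least 60% and not above a set upper limit (about 1 call in 100 departs from these limits); inconclusive = activation of 40% to 60%, or above that upper limit; inactive = activation under 40%.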 This is one part of the list.

Target: Probable G-protein coupled receptor 32 (Homo sapiens) (UniProt O75388)
Chain of UniProt O75388 (O75388 whole entry, looked up): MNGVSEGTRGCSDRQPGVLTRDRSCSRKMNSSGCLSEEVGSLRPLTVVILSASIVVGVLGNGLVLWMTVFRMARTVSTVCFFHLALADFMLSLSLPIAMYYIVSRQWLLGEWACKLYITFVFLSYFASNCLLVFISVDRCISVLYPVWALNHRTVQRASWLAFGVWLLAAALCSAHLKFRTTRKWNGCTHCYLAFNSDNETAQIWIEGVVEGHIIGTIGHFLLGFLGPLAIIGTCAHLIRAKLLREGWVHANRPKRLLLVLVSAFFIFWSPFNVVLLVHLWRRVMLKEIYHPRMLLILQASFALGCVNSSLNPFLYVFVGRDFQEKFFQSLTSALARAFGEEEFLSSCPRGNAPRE
Assay: qHTS for Agonists of Human Resolvin D1 Receptor DRV1; note: 0% is about no effect
Settings: CHO-K1 GPR32 beta-arrestin PathHunter luminescence, 90 min; at 76.9 µM; active compounds read high; zero percent set by DMSO-only wells
Outline: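 GPR32 activation in stably transfected CHO-K1 cells, detected as beta-arrestin recruitment by enzyme-fragment complementation. Compound exposure: 90 min, 37 °C.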

activation, inactive:
CN(C)CCNC(=O)CCCN1C(=O)c2cccnc2Oc2ccc(Cl)cc21 1.15%
CCN(c1ccc(OC)cc1)S(=O)(=O)c1nnc(NC(=O)c2ccccc2Cl)s1 -4.97%
COCCCNC(=O)CSc1c2c(nc3ccc(Cl)cc13)CCCC2 -13%
Cc1ccc(CNC(=O)c2ccc(CSCc3ccc(C)cc3)o2)cc1 -9.51%
CCOc1ccc(C2c3c(oc4ccc(C)cc4c3=O)C(=O)N2Cc2ccc3c(c2)OCO3)cc1OC (configuration not stated) 2.96%
Cc1c(C)n(Cc2ccc(Cl)cc2)c2ccc(C(=O)NCCc3ccc(S(N)(=O)=O)cc3)cc12 -11.1%
COCCCNC(=O)c1cc2c(=O)n3cccc(C)c3nc2s1 6.91%
Nc1c(-c2nc(-c3ccc(Cl)cc3)cs2)c2ccccn2c1C(=O)c1ccc2c(c1)OCO2 -24.3%
CCCCc1nc2ccccc2n2c(-c3ccc(C)cc3)c3c(=O)n(C)c(=O)n(C)c3c12 1.82%
CO[C@@H]1[C@@H](OC(N)=O)[C@@H](O)[C@H](Oc2ccc3c(O)c(NC(=O)c4ccc(O)c(CC=C(C)C)c4)c(=O)oc3c2C)OC1(C)C 5.32%
O=S(=O)(Nc1cccc(-c2ccc(N3CCCCC3)nn2)c1)c1cccc(F)c1 -1.19%
CC1CCN(S(=O)(=O)c2ccc3c(c2)N(CC(=O)NC(C)c2ccccc2)C(=O)CO3)CC1 (configuration not stated) -23.6%
COc1ccc(C2C(=O)N(C3CCC(C)CC3)CC(=O)N2CCc2ccccc2)cc1OC (configuration not stated) -13.7%
CSc1cccc(NC(=O)CN(c2ccccc2)S(=O)(=O)N(C)C)c1 0.996%
Cc1cc(N2CCCCC2)nc2ccc(NC(=O)c3cccc(F)c3)cc12 -9.81%
Cc1ccc(C(=O)N2CCc3cc(CNC(=O)COc4ccccc4)ccc32)cc1 -40%
CCCc1nnc(NC(=O)Cc2coc3cc(C)cc(C)c23)s1 7.61%
O=S(=O)(c1cccc(C(F)(F)F)c1)n1c(/C=C/c2ccccc2)nc2ccccc21 -6.8%
O=C(Cn1c(=O)n(-c2ccccc2)c(=O)c2sc3ccccc3c21)N1CCCC1 17.8%
CCOc1ccc(Nc2nc3ccccc3n3c(CC)nnc23)cc1 -10.2%
CCCN1CCN(CCCNC(=O)c2cnn(-c3ccc(F)cc3)c2-n2cccc2)CC1 -5.54%
CC(C)OCCCNC(=O)CCCn1c(SCC(=O)c2ccc(F)cc2)nc2c(sc3ccccc32)c1=O -15%
